# Data published in the supplement of paper PMC11417369.
# ± gives the standard deviation of the averaged measurements. This is one part of the list.
# Test system: PfAP2-LT AP2 domain (GST-tagged)
# Test: gcPBM binding intensity (ln(normalized median fluorescence intensity)); higher = stronger DNA binding
# In short: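 An Agilent 4 × 180k array of primer-extended double-stranded 36-bp intergenic genomic probes, with negative controls, was incubated for 1 h with GST-tagged P. falciparum DNA-binding domains expressed in E. coli. Alexa488 anti-GST antibody detected bound protein, scanned at 488 nm. Binding intensity is the highest Masliner-normalised natural-log median intensity across replicate spots of either probe orientation.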
row,Sequence,gcPBM binding intensity (ln)
1,TTACAAAAAGGTAATTTACACACTGCATATAGGAAT [CACACA_site8956],8.91 ± 0.43
2,TCTTAATATGGTAATACACACTAATATACTTTTGTT [CACACA_site4969],8.9 ± 0.37
3,TAATTTATCCTATAATGTACTTATAAAATATATCAT [XGTACX_site1460],8.53 ± 0.38
4,ATGTACATAAACCGCACACATATAAAAAAATAAATA [CACACA_site5571],9.44 ± 0.38
5,AGTCCATTTTATTATTGTACATATTAATTTATATCA [XGTACX_site672],9.1 ± 0.39
6,ATTCAGAGTATATAAAAATTAATATATACATAATAT [CACACA_negctrl_site1782],8.63 ± 0.45
7,TAGATATTTTTGAAAAGTACAAATTTTTAAAAATTA [XGTACX_site4420],8.07 ± 0.42
8,GTATGATTACAAGAAAGTAGTCCACTTTAACAACAA [CACACA_negctrl_site1304],8.8 ± 0.4
9,AATATTTTGTTATTTATTTAATCTAATATTACTATC [CACACA_negctrl_site4],8.67 ± 0.45
10,ATATATATATAAATATGTACATATATACATATATAC [XGTACX_site2374],8.89 ± 0.23
11,ATTATAGAATATTGAAGTACAAAATTTAAAATAAGT [XGTACX_site1468],8.78 ± 0.41
12,AAAAAAAAAAAATACACACAAACACAAATTAAATAA [CACACA_site3809],9.32 ± 0.32
13,TAGGAAAATTACAAAAGTACTTGGCACATAATAATG [XGTACX_site6005],8.7 ± 0.42
14,TATATATATATATATGCACACATTTATACAATTTTA [CACACA_site2986],9.57 ± 0.26
15,ATCATATCCACCAAATGAATAATATAAAATAATATA [XGTACX_negctrl_site193],8.68 ± 0.43
16,AAATAACATAATAAGGGTACATTAATTTCGATAATG [XGTACX_site835],8.77 ± 0.4
17,TATTTTGTCATAGAACGTACTTATAAATATTTTTTT [XGTACX_site8424],8.54 ± 0.45
18,ATAGAAGCTGTTGACGAAGAAAAAAAAAAAAAAAAA [CACACA_negctrl_site110],8.52 ± 0.57
19,AGAAAAAAAAAAAAAAAACACACGGTACATCCAAAG [CACACA_site124],8.96 ± 0.39
20,ATCAAATTATAATCATGTACAAATAAAAAAAAAAAA [XGTACX_site313],8.69 ± 0.5
21,AAATATCTACAAATATGTACATATTTTTTTTGGCTT [XGTACX_site6301],8.76 ± 0.48
22,AGAAAGTAAAGCTGTTGTACTATTATATATATTTTA [XGTACX_site8090],8.74 ± 0.43

row,Sequence,gcPBM binding intensity (ln)
1,GTAATACCCAAACACACACACATACCCATATATATA [CACACA_site5510],10.1 ± 0.29
2,TATAATATGTATATCTGTACATATTTTAAATCTAAT [XGTACX_site2426],8.49 ± 0.52
3,AAGTACAATTCATGTATGCACTTTATTATATTTTAT,8.79 ± 0.45
4,AAGATAAAATAATAAAGTACACATATAAATTGAAAA [XGTACX_site2113],8.89 ± 0.55
5,TTTCTTTTTAAATAATAATGTATAATAAAAAGTTCA [TGCATGCA_negctrl_site195],8 ± 0.37
6,TTTGTTTGATATATGTGTACATATATATATTATGCT [XGTACX_site3522],8.99 ± 0.35
7,TATTATAGTATATATTGTACATATATATATTTTTTA [XGTACX_site8831],8.62 ± 0.41
8,ATAATAATATATAGTACACACAAAAATGGAAGTAAA [CACACA_site3318],9.24 ± 0.54
9,TGTTATGAGAACAGCACACAAGCTACATCATATATA [CACACA_site870],8.82 ± 0.4
10,TATATATAAGATTGATGTACGATTTTGGTGTCTTAT [XGTACX_site2611],8.82 ± 0.47
11,AACATATGATTAAACTGTACAAGAAAAATATAACAT [XGTACX_site4477],9.07 ± 0.48
12,GAGAGGATCATCAATTCACACACATAAAAATGAAGT [CACACA_site9010],9.33 ± 0.45
13,TAAAAATATTATAATGCATGCAAAATATTGTTATAA [TGCATGCA_site244],8.73 ± 0.38
14,ATAGTTTTTCCAATTCAAAAAAAAAAAAAAAAAAAA [CACACA_negctrl_site969],7.96 ± 0.5
15,AAAGTATAAATAAATACACACATATTTATTTATATA [CACACA_site7375],8.89 ± 0.42
16,AGAAAAAAATAATGTACACACACATATATGTTTATA [CACACA_site7946],9.14 ± 0.36
17,ATATACAAAGGATTAACACACATATTATTATATATA [CACACA_site1880],8.91 ± 0.49
18,TATTTTTTAAAAAAATGTCATAAAATTTCTTTTTTC [XGTACX_negctrl_site271],8.04 ± 0.56
19,GTAATTTTATATGGTTGTACATATATATATATATAT [XGTACX_site6659],9.61 ± 0.042
20,ATATATATATATATGTGTACTTATATATTTAAAAAA [XGTACX_site1761],9.105 ± 0.064
21,TTATACCTGATTTAGGTGCTATAAATTTGTGTTTTT,8.71 ± 0.42
22,ATATATATATATATATATATTTATATGTGAAAACCC [CACACA_negctrl_site845],9.4 ± 0.085
